From the supplement of paper PMC7125110
± gives the standard error. Variants at the floor of the assay are shown more often than the library holds them.

B1: glmS ribozyme (parent)
chain: AUAAAAGCGCCAGAACUACAGAAAUGUAGUUGACGAGGAGGAGGUUUAUCGAAUUUUCGGCGGAUGCCUCCAAA

What was measured:
Details in all cases: with glucosamine-6-phosphate
glucosamine-6-phosphate [1] = variants of: B1; experiment: self-cleavage kobs at 40 uM GlcN6P; higher = faster cleavage; RNA array
How it was run: (§1)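 Tracking of barcoded ribozyme variants used a hybridised Cy3 probe at 37 °C, after in situ transcription by E. coli RNA polymerase on sequenced MiSeq chips. The flowed solution held 40 μM to 10 mM glucosamine-6-phosphate in HEPES/KCl/Mg(OAc)2 buffer, and imaging ran over ~14 h. kobs was taken from exponential decay fits of normalised per-tile medians, and kcat and KM from weighted Michaelis–Menten fits.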

glucosamine-6-phosphate [2] = variants of: B1; experiment: self-cleavage kobs at 640 uM GlcN6P; higher = faster cleavage; RNA array
How it was run: as §1

glucosamine-6-phosphate [3] = variants of: B1; experiment: self-cleavage kobs at 10000 uM GlcN6P; higher = faster cleavage; RNA array
How it was run: as §1

glucosamine-6-phosphate [4] = variants of: B1; experiment: self-cleavage kobs at 160 uM GlcN6P; higher = faster cleavage; RNA array
How it was run: as §1

glucosamine-6-phosphate [5] = variants of: B1; experiment: self-cleavage kobs at 2500 uM GlcN6P; higher = faster cleavage; RNA array
How it was run: as §1

| Variant | self-cleavage kobs at 40 uM GlcN6P (glucosamine-6-phosphate [1]) [s⁻¹] | self-cleavage kobs at 640 uM GlcN6P (glucosamine-6-phosphate [2]) [s⁻¹] | self-cleavage kobs at 10000 uM GlcN6P (glucosamine-6-phosphate [3]) [s⁻¹] | self-cleavage kobs at 160 uM GlcN6P (glucosamine-6-phosphate [4]) [s⁻¹] | self-cleavage kobs at 2500 uM GlcN6P (glucosamine-6-phosphate [5]) [s⁻¹] |
| --- | --- | --- | --- | --- | --- |
| A15G G38A C61U | < 1e-05 |  |  |  |  |
| A15G U30G C70U | 0.000184 ± 5.6e-05 | 0.00102 ± 0.00026 | 0.0318 ± 0.013 |  |  |
| A15U A33U C61G | < 1e-05 |  |  |  |  |
| A15U A36U | < 1e-05 | < 1e-05 | < 1e-05 | < 1e-05 |  |
| A15U A39C | 3.4e-05 ± 6.3e-06 | 0.000287 ± 3.8e-05 | 0.00102 ± 7.3e-05 |  | 0.000499 ± 5.7e-05 |
| A15U A52C C70U | < 1e-05 |  |  |  |  |
| A15U C50A | < 1e-05 |  |  | < 1e-05 |  |
| A15U C61U C70U | < 1e-05 |  |  |  |  |
| A15U G51A | < 1e-05 | < 1e-05 | < 1e-05 |  | < 1e-05 |
| A15U U45A A48U | < 1e-05 |  |  |  |  |
| C16A A39U G51U | < 1e-05 |  |  |  |  |
| C16A C50A G51A A52U | < 1e-05 |  | < 1e-05 |  |  |
| C16A G29C | 0.000114 ± 1.3e-05 | 0.000949 ± 0.00011 | 0.00391 ± 0.00075 | 0.000215 ± 4.5e-05 | 0.00217 ± 0.0003 |
| C16G A36U U45G C67A | < 1e-05 |  |  |  |  |
| C16G G44U | < 1e-05 |  | 2.26e-05 ± 1e-05 | < 1e-05 |  |
| C16G U30C G37A G62U | < 1e-05 |  |  | < 1e-05 |  |
| C16U C34A | < 1e-05 |  |  |  |  |
| C16U G29U | 0.000315 ± 2.9e-05 |  |  |  |  |
| C16U G38C A48G C50U U55G | < 1e-05 |  |  |  |  |
| C16U G40C | 0.00011 ± 1.1e-05 | 0.000837 ± 8.6e-05 |  | 0.000291 ± 3.7e-05 | 0.00184 ± 0.00021 |
| C16U G40U C68G | < 1e-05 |  | < 1e-05 | < 1e-05 |  |
| C16U G63U G66A | < 1e-05 |  |  |  |  |
| C16U U30A A48U A64C | < 1e-05 |  | < 1e-05 |  |  |
| C16U U49C | < 1e-05 | < 1e-05 |  | < 1e-05 | < 1e-05 |
| C19A G59U | < 1e-05 |  | 3.11e-05 ± 1.5e-05 |  |  |
| G29A A39U U69A | < 1e-05 |  |  |  |  |
| G29A C34U U47G A48G C67G | 0.000265 ± 0.0001 |  | 7.2e-05 ± 3.2e-05 |  |  |
| G29A G35C A64G | < 1e-05 |  | < 1e-05 |  |  |
